This passage reports Kd results from article PMC6226504, “Ca^2+ efflux via plasma membrane Ca^2+-ATPase mediates chemotaxis in ascidian sperm” (Scientific Reports, 2018).

This experiment has as its target plasma membrane Ca2+-ATPase (PMCA), splice variant Atp2b-var.b (Ciona intestinalis, UniProt A0A3G9HPC9).

As usually defined, the Kd is the free concentration of one partner at which half of the binding sites on the other are occupied at equilibrium, for simple one-to-one binding. Lower therefore signals higher affinity. `C[C@@H](CCC[C@@H](C)[C@H]1CC[C@H]2[C@@H]3[C@H](O)C[C@H]4[C@@H](O)[C@H](OS(=O)(=O)O)CC[C@]4(C)[C@H]3CC[C@]12C)COS(=O)(=O)O` [SAAF]: the Kd came to 240 ± 50 nM.
